Source: the supplement of paper PMC9446081
Among all 39,000 compounds or so, about 220 (0.56%) showed activity. Some of the results follow.

These compounds were tested on Escherichia coli K-12 BW25113 (assay: relative growth (OD600 normalised to plate interquartile mean) (fraction); higher = less growth inhibition, active = 0.2 or less). Conditions: 50 µM; LB; incubation time: overnight (16-24 h).
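Also: static incubation at 37 °C against the wild-type strain, values averaged over two biological replicates.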

**Q.** With `C[C@@H]1CN([C@@H](C)CO)C(=O)c2c(c3ccccc3n2C)-c2ccccc2CO[C@H]1CN(C)C(=O)Nc1ccc(F)cc1` as the compound, how does the relative growth read?
**A.** inactive: 1.02

**Q.** `Cc1ccc(S(=O)(=O)N(C)C[C@@H]2OCCCC[C@H](C)Oc3ccc(NS(=O)(=O)c4ccc(F)cc4)cc3C(=O)N([C@H](C)CO)C[C@@H]2C)cc1` was tested. Which relative growth did it give?
**A.** inactive: 1

**Q.** `O=C(COc1ccccc1)Nc1nnc[nH]1` was tested. Which relative growth did it give?
**A.** inactive: 0.94

**Q.** How did the relative growth turn out when `CC(C)(C)[S@](=O)N1Cc2cc(C(=O)N3CCCCC3)nc(-c3cccc(-c4cccc(C#N)c4)c3)c2[C@@H]1CCO` was run?
**A.** inactive: 0.993

**Q.** `C[C@@H]1CN([C@@H](C)CO)C(=O)c2cc(NC(=O)NC3CCCCC3)ccc2O[C@H]1CN(C)Cc1ccc(Oc2ccccc2)cc1` was tested. Which relative growth did it give?
**A.** inactive: 1.02

**Q.** `C[C@H](CO)N1C[C@H](C)[C@H](CN(C)CC2CC2)Oc2ccc(NS(=O)(=O)c3ccccc3)cc2C1=O` was tested. Which relative growth did it give?
**A.** inactive: 1.02

**Q.** Which relative growth does the source give for `COc1ccc(NC(=O)Nc2ccc3c(c2)[C@@H]2C[C@@H](CC(=O)N4CCN(C)CC4)O[C@H](CO)[C@@H]2O3)cc1` here?
**A.** inactive: 1.02

**Q.** Which relative growth does the source give for `C[C@@H]1CN([C@H](C)CO)S(=O)(=O)c2ccc(Br)cc2O[C@@H]1CN(C)S(=O)(=O)c1ccccc1` here?
**A.** inactive: 1

**Q.** For `C[C@H]1CN([C@@H](C)CO)C(=O)c2cccc(NC(=O)c3ccncc3)c2O[C@H]1CN(C)S(=O)(=O)c1cccs1`, which relative growth is on record?
**A.** inactive: 1

**Q.** Which relative growth does the source give for `COc1ccc2c3c([nH]c2c1)[C@@H](CO)N(C[C@]13CCN(CC1)S(=O)(=O)c1cn(cn1)C)C(=O)Nc1ccc(cc1)F` here?
**A.** inactive: 0.975

**Q.** Which relative growth does the source give for `COc1ccc2c3c(n(c2c1)C)[C@H](CO)N(CC1CCCCC1)C[C@]13CCN(CC1)Cc1nccs1` here?
**A.** inactive: 1.01

**Q.** `C[C@@H]1CCCCO[C@H](CN(C)S(=O)(=O)c2ccc(F)cc2)[C@H](C)CN([C@@H](C)CO)C(=O)c2cc(NC(=O)Cc3ccccc3)ccc2O1` was tested. Which relative growth did it give?
**A.** inactive: 0.99

**Q.** `C[C@@H]1CCCCO[C@@H](CN(C)C(=O)NC2CCCCC2)[C@@H](C)CN([C@@H](C)CO)C(=O)c2cc(NC(=O)c3ccccc3)ccc2O1` was tested. Which relative growth did it give?
**A.** inactive: 1.01

**Q.** Which relative growth does the source give for `COc1ccc([C@H]([C@H](Cc2ccccc2)OC(C)=O)N(C[C@H](/C=C/c2ccccc2)OC(C)=O)[C@@H](Cc2ccccc2)C(OC)OC)cc1` here?
**A.** inactive: 1.04

**Q.** How did the relative growth turn out when `CO[C@@H]1CN(C)C(=O)c2cc(NC(=O)Nc3cccc(F)c3)ccc2OC[C@@H](C)N(C(=O)Nc2cccc(F)c2)C[C@H]1C` was run?
**A.** inactive: 1.03

**Q.** How did the relative growth turn out when `C[C@H]1CN([C@@H](C)CO)C(=O)c2cccc(NS(=O)(=O)c3cn(C)cn3)c2O[C@@H]1CN(C)Cc1ccccc1` was run?
**A.** inactive: 0.933

**Q.** For `Cc1ccc(S(=O)(=O)N(C)C[C@@H]2Oc3ccc(NC(=O)NC(C)C)cc3C(=O)N([C@H](C)CO)C[C@H]2C)cc1`, which relative growth is on record?
**A.** inactive: 0.986

**Q.** How did the relative growth turn out when `O=C(CCCCCNC(=O)OC[C@H]1C(=O)O[C@@H](Cc2ccccc2)[C@H]2[C@H]3C(=CC(=O)[C@@H]3C3CC3)CN21)NO` was run?
**A.** inactive: 0.977

**Q.** Which relative growth does the source give for `C[C@@H]1CCCCO[C@@H](CN(C)S(=O)(=O)c2cccs2)[C@H](C)CN([C@H](C)CO)C(=O)c2cc(NC(=O)c3ccccc3)ccc2O1` here?
**A.** inactive: 1.01

**Q.** For `NC(=O)NCC#Cc1ccc2c(c1)[C@]1(C(=O)N2)[C@H](c2ccccc2OCCO)N2[C@H](c3ccccc3)[C@H](c3ccccc3)OC(=O)[C@H]2[C@@H]1C(=O)N1CCN(c2ncccn2)CC1`, which relative growth is on record?
**A.** inactive: 1.03

**Q.** Which relative growth does the source give for `CC(C)N1CC=C[C@@]23O[C@@H]4C=CCCOC(=O)[C@@H]4[C@H]2C(=O)N(CCCO)[C@@H]3C1=O` here?
**A.** inactive: 1

**Q.** `CC(C)[Si]1(C(C)C)OCc2cc(-c3ccc(-c4ccc(Cl)c(Cl)c4)o3)nc(CCc3ccccc3)c21` was tested. Which relative growth did it give?
**A.** inactive: 0.95

**Q.** Which relative growth does the source give for `C[C@H](CO)N1C[C@H](C)[C@@H](CN(C)C(=O)c2ccncc2)Oc2ncc(-c3ccc(C(=O)N(C)C)cc3)cc2C1=O` here?
**A.** inactive: 1.02

**Q.** Which relative growth does the source give for `CC1(C)C(=O)NCCN1C(=O)Cc1ccccc1` here?
**A.** inactive: 1

**Q.** How did the relative growth turn out when `C[C@H](CO)N1C[C@H](C)[C@H](CN(C)C(=O)CCC(F)(F)F)OCCCC[C@H](C)Oc2ccc(NC(=O)c3ccccc3)cc2C1=O` was run?
**A.** inactive: 1.04

**Q.** With `CC(C)C#Cc1ccc2c(c1)O[C@@H](CN(C)C(=O)c1cnccn1)[C@H](C)CN([C@@H](C)CO)S2(=O)=O` as the compound, how does the relative growth read?
**A.** inactive: 0.993

**Q.** For `CC(C)NC(=O)N1Cc2cc(C(=O)NCC(F)(F)F)nc(-c3cccc(-c4cc5ccccc5o4)c3)c2[C@H]1CCO`, which relative growth is on record?
**A.** inactive: 1.09

**Q.** How did the relative growth turn out when `COc1ccc(S(=O)(=O)Nc2ccc3c(c2)CC(=O)N([C@@H](C)CO)C[C@H](C)[C@@H](CN(C)S(=O)(=O)c2ccc(F)cc2)O3)cc1` was run?
**A.** inactive: 1

**Q.** `Cc1cc(C(=O)Nc2cccc3c2O[C@@H](CN(C)S(C)(=O)=O)[C@@H](C)CN([C@H](C)CO)C3=O)n(C)n1` was tested. Which relative growth did it give?
**A.** inactive: 1

**Q.** Which relative growth does the source give for `C[C@@H]1CN([C@H](C)CO)C(=O)c2cc(NC(=O)Nc3ccc(F)cc3)ccc2O[C@@H]1CN(C)C(=O)Nc1cccc2ccccc12` here?
**A.** inactive: 0.98

**Q.** For `COc1cccc(S(=O)(=O)N(C)C[C@H]2OCc3cnnn3CCCC(=O)N([C@@H](C)CO)C[C@@H]2C)c1`, which relative growth is on record?
**A.** inactive: 1

**Q.** For `CS(=O)(=O)N1C[C@@H]2COC[C@@]2(CN2CCOCC2)C1`, which relative growth is on record?
**A.** inactive: 0.99

**Q.** `N[C@H](CCC(=O)O)C(=O)O` was tested. Which relative growth did it give?
**A.** inactive: 1.03

**Q.** `COc1ccc(C#Cc2cccc(-c3nc(C(=O)N[C@@H]4CCN(Cc5ccccc5)C4)cc4c3[C@@H](CCO)N(S(=O)C(C)(C)C)C4)c2)cc1OC` (stereo partly drawn) was tested. Which relative growth did it give?
**A.** inactive: 1.01

**Q.** Which relative growth does the source give for `Cc1ccc(S(=O)(=O)N(C)C[C@H]2Oc3cc(C#Cc4ccccc4)ccc3S(=O)(=O)N([C@H](C)CO)C[C@H]2C)cc1` here?
**A.** inactive: 1.05

**Q.** Which relative growth does the source give for `C[C@@H]1CN([C@@H](C)CO)C(=O)c2cc(NC(=O)Nc3ccc(F)cc3)ccc2O[C@@H](C)CCCCO[C@@H]1CN(C)C(=O)CCCN(C)C` here?
**A.** inactive: 0.989

**Q.** For `C[C@H](CO)N1C[C@H](C)[C@H](CN(C)S(=O)(=O)c2ccc(Cl)cc2)Oc2ccc(N(C)C)cc2CC1=O`, which relative growth is on record?
**A.** inactive: 1.01

**Q.** `Cc1cn([C@H]2O[C@@H](CO)[C@H](O)[C@H]2F)c(=O)[nH]c1=O` was tested. Which relative growth did it give?
**A.** inactive: 0.988
